Test results from publication PMC4336329 (PLoS ONE, 2015).
About 14,000 (4.5%) of roughly 310,000 compounds showed an effect of 50% or more. Effects have a minus sign here. This is one part of the list.

biological target: human ether-à-go-go-related gene (hERG) potassium channel (human, UniProt Q12809); assay: primary screen, population patch clamp on CHO cells stably expressing hERG
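Note: peak tail current of the secondary pulse compared with the same well before compound.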

human ether-à-go-go-related gene (hERG) potassium channel, sequence (Q12809 whole entry, looked up): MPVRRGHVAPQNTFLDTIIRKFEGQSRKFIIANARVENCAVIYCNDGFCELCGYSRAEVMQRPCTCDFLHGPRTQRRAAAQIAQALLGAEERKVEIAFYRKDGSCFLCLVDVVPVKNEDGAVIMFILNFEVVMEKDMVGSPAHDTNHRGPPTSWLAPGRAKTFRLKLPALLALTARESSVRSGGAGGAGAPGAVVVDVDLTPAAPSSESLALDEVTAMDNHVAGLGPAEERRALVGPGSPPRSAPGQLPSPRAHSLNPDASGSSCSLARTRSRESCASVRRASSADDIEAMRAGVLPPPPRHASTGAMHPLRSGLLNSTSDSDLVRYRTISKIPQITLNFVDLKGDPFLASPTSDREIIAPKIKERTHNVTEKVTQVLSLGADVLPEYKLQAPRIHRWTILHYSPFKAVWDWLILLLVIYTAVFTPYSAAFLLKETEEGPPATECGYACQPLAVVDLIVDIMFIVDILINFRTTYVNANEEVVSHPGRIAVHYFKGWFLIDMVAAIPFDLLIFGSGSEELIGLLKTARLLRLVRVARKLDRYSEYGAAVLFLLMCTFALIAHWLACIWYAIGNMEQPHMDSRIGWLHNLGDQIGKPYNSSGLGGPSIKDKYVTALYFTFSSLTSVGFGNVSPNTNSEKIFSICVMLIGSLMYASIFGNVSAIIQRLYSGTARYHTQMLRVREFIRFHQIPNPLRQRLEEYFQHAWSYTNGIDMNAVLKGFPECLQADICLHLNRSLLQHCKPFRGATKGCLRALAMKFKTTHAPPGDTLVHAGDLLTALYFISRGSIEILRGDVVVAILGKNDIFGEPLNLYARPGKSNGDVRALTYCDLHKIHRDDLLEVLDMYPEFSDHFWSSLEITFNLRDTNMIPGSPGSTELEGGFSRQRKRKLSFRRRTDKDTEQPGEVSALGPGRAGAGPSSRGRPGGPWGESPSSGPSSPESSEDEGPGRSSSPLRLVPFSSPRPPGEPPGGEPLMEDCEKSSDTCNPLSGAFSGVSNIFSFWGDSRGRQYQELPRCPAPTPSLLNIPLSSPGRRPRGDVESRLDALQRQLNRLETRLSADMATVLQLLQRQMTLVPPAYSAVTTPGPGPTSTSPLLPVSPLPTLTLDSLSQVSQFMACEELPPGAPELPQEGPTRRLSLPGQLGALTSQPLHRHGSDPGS

| Structure (SMILES) | hERG current change (%, negative = inhibition) at 10uM |
| --- | --- |
| CC(C(=O)N1CCOCC1)N1C(=O)C2C3CC(C(Br)C3Br)C2C1=O (stereo not drawn) | -1.46% |
| Cn1c(C(=O)N2CCCC(C(=O)NCCCc3ccccc3)C2)cc2sccc21 (stereo not drawn) | -46.4% |
| CCOc1cc(S(=O)(=O)NCCc2cccc(C)c2)c(OCC)cc1-n1cnnn1 | -22.4% |
| CCCn1c(N)c(Sc2ccccc2[N+](=O)[O-])c(=O)n(CCC)c1=O | 5.29% |
| O=C(Nc1ccc(F)cc1)N(Cc1ccco1)Cc1cc2cc3c(cc2[nH]c1=O)OCO3 | 6.08% |
| CCCCC#Cc1cncc(C(=O)N/N=C/c2ccccc2)c1 | 11.8% |
| COc1ccccc1CNC(=O)COc1ccc([N+](=O)[O-])cc1 | -32.5% |
| Clc1ccc(CNc2ccccn2)cc1 | -12.7% |
| Cc1cc(/C=N/n2cnnc2)c(C)n1-c1cc(Cl)ccc1Cl | -32% |
| O=C(CCC1CCCCC1=O)c1ccccc1 (stereo not drawn) | -1.23% |
| O=C(NCCCN1CCOCC1)C1Nc2ccc(OC(F)(F)F)cc2C2C=CCC12 (stereo not drawn) | -18.9% |
| Cc1cccc(OCc2nnc(SCC(=O)OC3CCCCC3)o2)c1 | 14.1% |
| O=C1CC(=C(c2ccccc2)c2ccccc2)C(=O)N1CCCCN1CCN(c2ccccc2)CC1 | -63.3% |
| CC12CCC(C(=O)Nc3cccc4ccccc34)(C1Br)C2(C)C (stereo not drawn) | 15.3% |
| O=S(=O)(NNc1nccc(C(F)(F)F)n1)c1cccc(Cl)c1Cl | 26.4% |
| CCCn1c(CC)nc([N+](=O)[O-])c1S(=O)(=O)c1ccccc1 | -23.8% |
| CC1=C(NCCc2ccccc2)CCC1=O | 11.5% |
| O=C(NCc1cccnc1)Nc1cccc(Cl)c1Cl | 0.584% |
| c1ccc(C2=NCCCN2)cc1 | -7.18% |
| COc1ccc(CCNC2CC(C)N(C)CC2C)cc1OC.Cl (stereo not drawn) | 3.84% |
| CCOC(=O)c1sc(C)c2c1NC(C)(c1cccc3ccccc13)NC2=O (stereo not drawn) | 11% |
| Cc1ccc(-n2ncc3c(SCC(=O)NNC(=O)C(C)C)ncnc32)cc1 | 30.5% |

| Structure (SMILES) | hERG current change (%, negative = inhibition) at 10uM |
| --- | --- |
| c1ccc(N2CCN(Cc3cn4ccccc4n3)CC2)cc1 | 10.8% |
| CCOC(=O)N1CCN(C(=O)c2ccc(CN(c3ccccc3)S(C)(=O)=O)cc2)CC1 | 6.55% |
| O=C(C[n+]1ccc(C(=O)N/N=C/c2ccc(Br)cc2)cc1)c1ccccc1.[Br-] | -63.6% |
| CC(C)(C)c1ccc(S(=O)(=O)N2CCCCC2C(=O)NCc2ccccn2)cc1 (stereo not drawn) | -23.6% |
| O=CN1CCCN(C(=O)CC2C(=O)NCCN2Cc2cccc(Oc3ccccc3)c2)CC1 (stereo not drawn) | -15.7% |
| CN(C)c1ccc(Nc2cc(Cl)ncn2)cc1 | 1.65% |
| O=c1cc(CO)oc(CN2CCN(c3ccccc3F)CC2)c1O | 6.86% |
| COC(=O)c1c(NC(=O)CCc2ccc(C)o2)sc(C)c1C | -5.99% |
| CCCCN(C)CCNC(=O)c1cc(-c2cccnc2)nc2ccc(S(=O)(=O)N3CCC(C)CC3)cc12 | -35.5% |
| COc1ccc(CC(NC(C)=O)C(=O)N2CCN(C(=O)N(C(C)C)C(C)C)CC2)cc1 (stereo not drawn) | 0.101% |
| Cn1c2ccccc2c(=O)c2c(=O)n(Cc3ccco3)c(-c3ccc(F)cc3)nc21 | -15.1% |
| CCOc1ccc(NC(=O)CN(C)CC(=O)Nc2ccc(Br)cc2F)cc1OCC | -17.6% |
| C=CCNc1nc(NCCN2CCOCC2)nc(N2CCOCC2)n1 | 18.6% |
| CCOC(=O)c1ccc(N2C(=O)CC(N3CCN(C(=O)c4ccccc4)CC3)C2=O)cc1 (stereo not drawn) | -1.74% |
| Cn1cc(C(=O)N/N=C/c2ccc3c(c2)OCO3)c2ccccc21 | -10.2% |
| Oc1ccccc1C1N=C(c2ccccc2)NC(c2ccccc2)=N1 | -7.87% |
| O=c1c2ccccc2n(CC(O)CN2CCCCC2)c2ccccc12 (stereo not drawn) | -32% |
| O=C(NCc1cccc(Cl)c1)c1ccc(S(=O)(=O)Nc2cccc(C(F)(F)F)c2)cc1 | 15.4% |
| C/C(=N\NC(=O)c1ccc(Cl)cc1)c1cccc(NC(=O)C(C)C)c1 | -0.802% |
| CCN(CC)CCn1c(OC)cc(=O)[nH]c1=O | 17.6% |
| CNC(=S)NNC(=O)COc1cccc(C)c1C | 21.4% |
| O=C(COC(=O)c1ccc(N2CCCC2=O)cc1)Nc1ccccc1 | 21.3% |

| Structure (SMILES) | hERG current change (%, negative = inhibition) at 10uM |
| --- | --- |
| COc1ccccc1N(CC(=O)Nc1cccnc1)S(=O)(=O)c1ccccc1 | -2.72% |
| O=C(O)CCC(=O)c1c[nH]c2ccccc12 | -7.54% |
| O=C(NCC(Cl)c1ccc2ccccc2c1)c1c(F)cccc1F (stereo not drawn) | 9.66% |
| Cc1ccn(CCC(=O)Nc2ccc(-c3ccno3)cc2)n1 | -0.855% |
| COc1ccc([N+](=O)[O-])cc1NC(=S)NC(NC(=O)C(c1ccccc1)c1ccccc1)C(Cl)(Cl)Cl (stereo not drawn) | 2.68% |
| Cc1c(OC(C(=O)O)c2ccccc2)ccc2c(-c3ccccc3)cc(=O)oc12 (stereo not drawn) | 17.2% |
| O=C(c1cccs1)N1CCC(c2nc3ccccc3s2)CC1 | -57.2% |
| CC(=O)NC(Cc1c[nH]c2ccccc12)C(=O)O (stereo not drawn) | -2.58% |
| CCOc1ccc(NS(=O)(=O)c2ccc(C(=O)N(C)CC(=O)Nc3ccc(OC)cc3)cc2)cc1 | -13.4% |
| O=C(NCC1(c2ccccc2)CCCC1)c1ccco1 | -24.9% |
| O=[n+]1c2c(n([O-])c3cc(F)ccc31)CCCC2 | -12.5% |
| Cc1cc(C)n2nc(SCC(=O)NC(=O)NCc3ccco3)nc2n1 | 4.84% |
| C#CCOCCOCCOCCNc1nc(N2CCN(C(=O)CCCCCCCCCCNC(=O)[C@H](CCCCN)n3cc(CCCC(=O)O)nn3)CC2)nc(N2CCN(C(=O)CCCCCCCCCCNC(=O)[C@@H]([C@H](C)O)n3cc(C)nn3)CC2)n1 | 10.4% |
| Fc1ccc(-c2ccnc(=S)[nH]2)cc1 | 14.3% |
| COc1ccc(C(=O)Nc2ccc([N+](=O)[O-])cn2)c(OC)c1 | 4.61% |
| CCn1ccnc1CN(C)Cc1cn[nH]c1-c1ccc(F)cc1F | 6.01% |
| COCC(C)NC(=O)c1ccccc1OC(C)=O (stereo not drawn) | -0.476% |
| COc1ccccc1C(=O)NCCNC(=O)c1ccc(C)nc1 | 21.2% |
| Nc1nc2ccccc2n1/N=C/c1ccc(Br)cc1 | 6.68% |
| NC(=O)[C@@H]1CCCNc2c(I)cc([N+](=O)[O-])cc2C(=O)N[C@@H](Cc2ccccc2)C(=O)N[C@@H](Cc2cnc[nH]2)C(=O)N1 | 3.29% |
| COc1ccc(Cl)cc1NC(=S)Nc1ccccc1C | 8.13% |
| CCCN(CC(=O)Nc1ccccc1C)CC(=O)Nc1ccc(Br)cc1F | 9.92% |

| Structure (SMILES) | hERG current change (%, negative = inhibition) at 10uM |
| --- | --- |
| c1ccc(CN2CCC3(CC2)Nc2ccccc2S3)cc1 | 6.58% |
| COC(=O)c1ccccc1NC(=O)C1CCCN(S(C)(=O)=O)C1 (stereo not drawn) | -10.5% |
| O=C(c1ccc2c(c1)OCO2)N1CCN=C1SCc1cccnc1 | -4.43% |
| O=C(/C=C/c1ccccc1)N1CCCN(C(=O)/C=C/c2ccccc2)CC1 | -68.5% |
| COc1cc(C=O)ccc1OCCOCCOc1ccccc1Cl | -22.9% |
| O=C(CSC1=NCCS1)Nc1ccnc2ccccc12 | -5.91% |
| CC1CCN(Cc2nnnn2CCCC(=O)NCC(C)(C)N2CCOCC2)CC1 | 2.01% |
| CCOC(=O)c1nnc2cc(-c3ccccc3)nn2c1C | -0.314% |
| CNc1ccc(Br)cc1C(O)c1ccccc1 (stereo not drawn) | -3.18% |
| CCOc1ccc(N(CC(=O)NC2CCCC2)S(=O)(=O)c2c(C)noc2C)cc1 | 0.325% |
| COc1ccc(Oc2c(Cl)cnn(-c3ccc(C)cc3)c2=O)cc1 | -18.5% |
| Nc1nc(NCc2ccco2)nc(N2CCOCC2)c1[N+](=O)[O-] | 3.68% |
| Cc1ccnc(NS(=O)(=O)c2ccc(NC(=O)c3oc4ccccc4c3C)cc2)n1 | 10.2% |
| CNC(=O)c1ccsc1NC(=O)c1ccccc1 | -29.8% |
| CCCCc1cc(=O)oc2cc(OCC(=O)N[C@@H](Cc3ccccc3)C(=O)O)ccc12 | 6.13% |
| COc1ccc(CN2C(=O)NC3(CCCCCC3)C2=O)cc1F | -7.56% |
| COc1ccccc1NS(=O)(=O)c1cc(NC(=O)CNC(=O)c2cc(C)cc(C)c2)ccc1C | -3.94% |
| COc1ccc2nc3cc(Cl)ccc3c(C#N)c2c1 | -4.48% |
| Cc1ccc(NC(=O)CN(C)C(=O)COc2c(Cl)cc(Cl)c3ccc(C)nc23)cc1 | -31.2% |
| Cc1ccc2[nH]c(=O)c(N3CCOCC3)c(-c3ccccc3)c2c1 | 12.6% |
| Cc1ccnc(SCC(=O)N2CCN(C(c3ccccc3)c3ccccc3)CC2)n1 | -18.5% |
